Test results reported in PubChem BioAssay AID488969 (Vanderbilt High Throughput Screening Facility, 2010).
Whole data set: some 110,000 compounds, median “z-score” near -0.1, cut for the highest 2% near 2. Some of the results follow. Calls of active or inactive are those of the source.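 How the source made its calls: active means z-score in the third read window above 3 or below -3; inactive means the rest.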

Each compound was assayed against Metabotropic glutamate receptor 8 (Rattus norvegicus) (UniProt P70579) (assay: rat mGluR8 modulators via GIRK flux, primary screen, cell-based, thallium flux, HTS (AID 488969)). Conditions: HEK293 rat mGluR8, GIRK (G protein-gated inwardly rectifying potassium channel) thallium flux, FluoZin2; at 10 µM; stronger effect = higher value; submaximal glutamate (EC20) added with thallium.
UniProt P70579, sequence (P70579 whole entry, looked up): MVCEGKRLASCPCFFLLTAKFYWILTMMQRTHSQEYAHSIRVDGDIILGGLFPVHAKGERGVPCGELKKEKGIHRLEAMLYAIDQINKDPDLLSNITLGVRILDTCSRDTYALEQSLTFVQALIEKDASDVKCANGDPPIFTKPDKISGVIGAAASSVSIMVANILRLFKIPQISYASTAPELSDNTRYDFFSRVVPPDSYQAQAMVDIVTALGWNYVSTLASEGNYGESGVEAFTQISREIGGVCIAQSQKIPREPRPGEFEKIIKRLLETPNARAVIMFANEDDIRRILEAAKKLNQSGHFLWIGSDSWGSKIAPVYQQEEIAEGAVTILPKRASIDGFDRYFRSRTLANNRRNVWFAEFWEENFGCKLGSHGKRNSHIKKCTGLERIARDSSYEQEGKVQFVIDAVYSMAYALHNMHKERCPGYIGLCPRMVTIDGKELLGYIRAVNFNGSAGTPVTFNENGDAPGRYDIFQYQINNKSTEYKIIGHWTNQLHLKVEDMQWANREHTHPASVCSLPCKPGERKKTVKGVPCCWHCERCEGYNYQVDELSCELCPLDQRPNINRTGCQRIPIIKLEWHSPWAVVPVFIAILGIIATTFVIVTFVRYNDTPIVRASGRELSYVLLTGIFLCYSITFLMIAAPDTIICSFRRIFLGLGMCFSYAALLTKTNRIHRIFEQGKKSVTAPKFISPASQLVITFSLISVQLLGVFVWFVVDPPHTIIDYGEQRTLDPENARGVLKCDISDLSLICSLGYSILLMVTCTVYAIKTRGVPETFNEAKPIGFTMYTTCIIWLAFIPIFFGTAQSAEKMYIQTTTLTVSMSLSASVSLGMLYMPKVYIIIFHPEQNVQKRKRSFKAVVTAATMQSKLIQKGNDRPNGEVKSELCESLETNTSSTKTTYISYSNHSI

First: CCCCN1C(=O)c2ccc(C(=O)Nc3cccc(C)c3C)cc2C1=O
Second: CC(=O)c1ccc(OC(=O)C(CCS(C)(=O)=O)N2C(=O)c3ccccc3C2=O)cc1 (stereo not drawn)
The z-score of the first is higher: 0.268 for the first, -0.239 for the second.

Compared with `CCc1cccc(C)c1NC(=O)CSc1nc(-c2ccccc2F)nc2nc[nH]c12`, `O=C(/C=C/c1cccc([N+](=O)[O-])c1)Nn1c(-c2ccccc2F)nc2ccccc2c1=O` is lower in z-score: 0.0867 for the first, 0.0632 for the second.

Compared with `CCN(N=Nc1cccc([N+](=O)[O-])c1)c1cccc([N+](=O)[O-])c1`, `CC(=O)N/N=C/c1cc([N+](=O)[O-])ccc1OCCOc1ccccc1` is higher in z-score: -0.0769 for the first, 0.0581 for the second.

Compared with `CCn1c(=O)n(CC(=O)NC2CCCC(C)C2C)c(=O)c2ccccc21` (stereo not drawn), `CCn1c(SCC(=O)N2c3ccccc3CCc3ccccc32)nc2c1c(=O)n(C)c(=O)n2C` is lower in z-score: 0.522 for the first, -0.33 for the second.

Compared with `O=c1c2ccccc2ncn1CCOCCOc1cccc(Br)c1`, `COCCCn1cnc2c(c1=O)c1nc3ccccc3nc1n2-c1ccccc1` is higher in z-score: -0.276 for the first, -0.0291 for the second.

Compared with `CCOc1cccc(-c2nnc(SCC(=O)Nc3cc(C)ccc3OC)n2N)c1`, `COc1cccc(NC(=O)CCSc2ccc(C)cc2)c1` is higher in z-score: -0.599 for the first, 0.275 for the second.

Going from `Cc1nc(NCCO)c2nnn(Cc3ccccc3F)c2n1` to `O=C(NC1CC1)c1nc2c(nnn2Cc2ccccc2Cl)c(=O)[nH]1`, the z-score falls from -0.129 to -2.43.

First: Cc1cc(C(F)(F)F)nc(SCC(=O)NC2=NC(=O)C(C)S2)n1 (stereo not drawn)
Second: Cc1ccccc1NC(=O)/C=C/c1cccc(C(F)(F)F)c1
The z-score of the first is higher: 0.475 for the first, -0.116 for the second.

First: N#Cc1nc(-c2cccs2)oc1NCCCN1CCOCC1
Second: CCOC(=O)c1c(-c2ccc(F)cc2)csc1NC(=O)CCN1CCOCC1
The z-score of the first is higher: 0.112 for the first, -1.1 for the second.

First: CCOC(=O)C1CCCN(S(=O)(=O)c2c(C)c(C)cc(C)c2C)C1 (stereo not drawn)
Second: CCOC(=O)c1ccc(S(=O)(=O)NC2CCCCCCC2)n1C
The z-score of the first is higher: -0.122 for the first, -0.208 for the second.

Compared with `COCCNS(=O)(=O)c1ccc(C2CNC(=O)C2)cc1` (stereo not drawn), `O=[N+]([O-])c1ccc(S(=O)(=O)NCC2CCCO2)cc1` (stereo not drawn) is higher in z-score: -0.229 for the first, -0.0295 for the second.

First: Nc1ccc(N2CCOCC2)c(Cl)c1
Second: Cc1ccc(CCN2CC(C(=O)NCCN3CCOCC3)CC2=O)cc1 (stereo not drawn)
The z-score of the first is lower: -0.276 for the first, -0.00749 for the second.

Compared with `COc1ccc(NC(=O)Nc2ccc3nc(C)c(C)nc3c2)cc1`, `COc1ccc(C(=O)OCC(=O)Nc2ccc(OC(F)F)cc2)c(OC)c1` is lower in z-score: 0.469 for the first, -0.522 for the second.

First: O=C(COC(=O)Cn1cnc2ccccc21)Nc1cccc2c1C(=O)c1ccccc1C2=O
Second: COc1ccc(C2CC(c3ccccc3)=NN2C(=O)COC(=O)c2cccnc2Cl)cc1 (stereo not drawn)
The z-score of the first is lower: -0.662 for the first, 0.0845 for the second.

First: CN(C)c1oc(-c2ccc(OCc3ccccc3)cc2)nc1C#N
Second: CCCOc1ccc(-c2nc(OC)c3ccccc3n2)cc1
The z-score of the first is lower: -1 for the first, -0.998 for the second.

First: O=C(Oc1ccccc1)n1c(=S)oc2ccccc21
Second: OCc1nc2ccccc2n1C/C=C/c1ccccc1
The z-score of the first is lower: -0.751 for the first, 0.00864 for the second.

First: Cc1nn(Cc2cccc(C(=O)NC34CC5CC(CC(C5)C3)C4)c2)c(C)c1Br
Second: Cc1cc(/C=N\NC(=O)CC(=O)NC2CCCCC2)c(C)n1-c1ccc(Cl)c(Cl)c1
The z-score of the first is higher: 0.396 for the first, 0.0786 for the second.

First: CCOC(=O)c1cc2c(=O)n3ccccc3nc2n(CCOC)c1=NC(=O)c1ccncc1
Second: CCOC(=O)c1ccc(N2C(=O)CC(N(C)CCc3ccc(OC)c(OC)c3)C2=O)cc1 (stereo not drawn)
The z-score of the first is higher: -0.0374 for the first, -0.142 for the second.

First: Cc1ccc(-n2cnc3c(sc4nccc(N(C)C)c43)c2=O)cc1
Second: CC(C)Sc1nc2c(cnn2-c2ccc(F)cc2)c(=O)[nH]1
The z-score of the first is higher: -0.138 for the first, -0.151 for the second.

First: CSCCC(NC(=O)c1ccccc1)C(=O)Nc1ccc(NC(C)=O)cc1 (stereo not drawn)
Second: O=C(Nc1ccc(NC(=O)c2cccs2)cc1)c1ccco1
The z-score of the first is higher: -0.112 for the first, -0.141 for the second.

First: COc1nc(-c2ccccc2)c2c(c1C#N)CC(C)(C)OC2
Second: CC1(C)Cc2c(c(-c3ccccc3)[nH]c(=O)c2C#N)CS1
The z-score of the first is lower: -0.906 for the first, -0.694 for the second.

First: C=Cn1nc(C)c2ccccc2c1=O
Second: Cc1cc(C#N)c2ccccc2n1
The z-score of the first is higher: 0.236 for the first, -0.0631 for the second.

First: C=CCn1c(SC2CCOC2=O)nc2scc(C3CC3)c2c1=O (stereo not drawn)
Second: CC(C)Cn1c(-c2csc3c2CCCC3)n[nH]c1=S
The z-score of the first is lower: -1.67 for the first, -1.59 for the second.

Compared with `CCn1c(SCC(=O)N2c3ccccc3Sc3ccc(Cl)cc32)nc2c1c(=O)n(C)c(=O)n2C`, `Cc1ccc(Cl)cc1Nc1nc(-c2sc(NC(=O)c3cccc(Cl)c3)nc2C)cs1` is higher in z-score: -0.113 for the first, 0.00487 for the second.

First: COC(=O)c1sccc1-c1ccc(/C=N/OCc2c(Cl)cccc2Cl)o1
Second: Clc1ccc(COc2ccccn2)cc1Cl
The z-score of the first is lower: -0.187 for the first, 0.185 for the second.

First: Cc1ccc(S(=O)(=O)N2CCN(c3ccc([N+](=O)[O-])c4cccnc34)CC2)cc1
Second: O=C(c1cccs1)N1CCN(S(=O)(=O)c2ccccc2)CC1
The z-score of the first is higher: -0.299 for the first, -0.416 for the second.

Going from `COc1ccc([N+](=O)[O-])cc1N(CC(=O)NCCC1=CCCCC1)S(C)(=O)=O` to `O=C(CSc1ccc2ccccc2n1)NCCC1=CCCCC1`, the z-score rises from -0.391 to -0.282.

Going from `CCCCOC(=O)Nc1cccc(C(=O)OCC)c1` to `CCOC(=O)/N=C(/NC(=O)Nc1ccc(C(=O)OCC)cc1)OC`, the z-score rises from -0.438 to 0.152.

First: C=CCSc1nc(N)c(C#N)c(-c2ccc(C)cc2)c1C#N
Second: Cc1ccc(N(C=NC#N)CC(=O)N2CCN(c3ccccc3)CC2)cc1
The z-score of the first is higher: 0.664 for the first, -0.535 for the second.

First: CC1(C)CC(=O)C(C=Nc2cccnc2)=C(O)C1
Second: CCCc1cc(=O)[nH]c(SCc2cccnc2)n1
The z-score of the first is higher: 0.759 for the first, -0.521 for the second.

Compared with `CC1CCN(C(=O)c2ccc(N(C)S(C)(=O)=O)cc2)CC1`, `COc1ccc(C(=O)NN2C(=O)C3CCC(C)(C2=O)C3(C)C)cc1` (stereo not drawn) is lower in z-score: -0.0497 for the first, -0.0665 for the second.

First: CC(C)COC(=O)c1cc(=O)[nH]c2ccccc12
Second: CCOC(=O)C1=C(C)NC(=O)C1CC(=O)Nc1ccccc1 (stereo not drawn)
The z-score of the first is higher: 1.23 for the first, 0.0821 for the second.

Going from `O=c1c(-c2ccc3c(c2)OCCO3)coc2cc(O)cc(O)c12` to `O=C(CN1CCN(c2ncccn2)CC1)N1CCCc2c1c(=O)oc1ccc(O)cc21`, the z-score rises from 0.199 to 0.288.

Going from `Brc1ccccc1CN1CCC(N2CCCCC2)CC1` to `c1csc(-c2nnc(N3CCCCCC3)c3ccccc23)c1`, the z-score falls from -0.199 to -0.351.

First: COc1ccc(CNCC(O)(c2ccc(Cl)cc2)c2ccc(Cl)cc2)cc1OC
Second: COc1ccc(C(=O)Nc2ccc(/C(C)=N/NC(=O)c3ccccc3O)cc2)cc1OC
The z-score of the first is lower: -0.801 for the first, -0.529 for the second.

Compared with `O=C(NNc1nc(-c2ccccc2)cs1)c1ccco1`, `Cc1ccc(-c2csc(NC(=O)/C=C/c3cccs3)n2)cc1C` is lower in z-score: -0.43 for the first, -2.16 for the second.

Compared with `CC(=O)Nc1ccc(NC(=O)CN2CCCC(C)C2)c(Cl)c1` (stereo not drawn), `Cc1ccccc1C(=O)N[C@H](C(=O)Nc1ccc(Cl)c(Cl)c1)C(C)C` is higher in z-score: -0.137 for the first, 0.82 for the second.

Going from `O=C(CCSCc1ccc(Cl)cc1)NC1CCCC1` to `Cn1cc(CNC(=O)COc2ccc(Cl)cc2Cl)cn1`, the z-score rises from -0.0852 to 0.182.

Compared with `Cc1cc(N2CCC(C)CC2)c(F)cc1[N+](=O)[O-]`, `O=C(c1ccc(-c2ccc([N+](=O)[O-])cc2)o1)N1CCCCC1` is lower in z-score: 0.00178 for the first, -0.859 for the second.

Compared with `Cn1nc(C(F)(F)F)c(C(=O)Nc2ccc(F)cc2F)c1Sc1cccc(Cl)c1`, `Cc1nnc(NC(=O)C2c3ccccc3Oc3ccccc32)s1` is lower in z-score: -0.0899 for the first, -1.17 for the second.

Compared with `COc1ccc(C(=O)Nc2ccc(OCc3ccccc3)cc2)cc1[N+](=O)[O-]`, `O=C(Nc1ccc(Oc2ccccc2)cc1)c1cnc2n(c1=O)CCS2` is lower in z-score: 0.0206 for the first, -0.622 for the second.

First: CC1(C)S/C(=N/N=C/c2ccco2)NC1=O
Second: C=CCOC(=O)/C(=C/c1ccco1)NC(=O)/C=C/c1ccccc1
The z-score of the first is higher: -0.194 for the first, -0.338 for the second.

Going from `CCCC1=NCCn2cccc21` to `COc1cccc2c(=O)n(CC(=O)N3CCCCC3)ccc12`, the z-score falls from 0.38 to -0.0457.

Compared with `O=C(Cc1ccccc1)N/N=C/c1ccc([N+](=O)[O-])s1`, `CCN(CC)S(=O)(=O)c1ccc(OCC(=O)NCc2ccccc2)cc1` is lower in z-score: 0.543 for the first, 0.0793 for the second.

Compared with `Cn1cccc1/C=C1\SC(=S)N(CC(=O)O)C1=O`, `COc1ccc(NC(=O)Cn2nc3n(c2=S)CCC3)cc1` is higher in z-score: -0.209 for the first, 0.157 for the second.

First: COc1cccc2cc(NC(=O)C3CCCCC3)c(=O)oc12
Second: COc1ccccc1C(=O)Nc1ccccc1C(=O)N1CCCC1
The z-score of the first is lower: -0.121 for the first, 0.00209 for the second.

Going from `Clc1ccc(Cc2ccc(Cl)nn2)c(Cl)c1` to `Clc1nnc(N/N=C/c2ccccc2)c2ccccc12`, the z-score falls from -0.119 to -0.61.

First: CN(C1CCS(=O)(=O)C1)S(=O)(=O)c1ccc(N2CCCC2=O)cc1 (stereo not drawn)
Second: COC(=O)COc1cccc(NS(=O)(=O)c2ccc(NC(C)=O)cc2)c1
The z-score of the first is higher: 0.131 for the first, -0.377 for the second.

First: COC(=O)c1ccc(C(=O)OC)c(NC(=S)N2CCCCC2)c1
Second: COC(=O)C1=C(C(=O)OC)SC(=C2C(=S)C(C)(C)N(C(=O)C3CC3)c3ccccc32)S1
The z-score of the first is lower: 0.0622 for the first, 0.125 for the second.

First: CCOc1cnn(Cc2ccccc2)c(=O)c1SCc1ccccc1
Second: Cc1nn(-c2ccccc2)c(Cl)c1/C=C1\N=C(c2ccccc2)OC1=O
The z-score of the first is higher: -0.596 for the first, -0.615 for the second.

Compared with `CCN(CC)C(=O)CSc1nnc(CCNC(=O)OC(C)(C)C)o1`, `CCOC(=O)c1[nH]c(C)c(C(=O)OCCOc2cccc(C)c2)c1C` is lower in z-score: 0.491 for the first, -0.07 for the second.

Going from `CCOC(=O)N1CCN(C(=O)c2ccc3c(c2)NC(=O)C(N2CCOCC2)S3)CC1` (stereo not drawn) to `CC(C)CC(=O)N1CCC(O)(CS(=O)(=O)Cc2ccccc2)CC1`, the z-score falls from 0.466 to 0.0421.

Going from `O=C1NC(Cc2c[nH]c3ccccc23)C(=O)N1CCOc1ccc(F)cc1` (stereo not drawn) to `Cn1c(-c2cccc(Br)c2)cnc1NCc1cccnc1`, the z-score falls from -0.0718 to -0.125.

Going from `CCC(CC)C(=O)NCc1ccc2c(c1)cc(C)n2C` to `CCOC(=O)c1ccc(Nc2ncnc3c2cnn3C)cc1`, the z-score rises from -0.18 to 0.0472.

First: COC(=O)Cc1[nH]nc2c1C(C1C=CCCC1)C(C#N)=C(N)O2 (stereo not drawn)
Second: O=C(NC1CC2CCC(C1)N2Cc1ccco1)c1ccccc1 (stereo not drawn)
The z-score of the first is lower: -1 for the first, 0.21 for the second.

Compound `CCC1CCCCN1C(=S)Nc1ccc(SC(F)F)cc1` (stereo not drawn) has a z-score of 0.737.

In the case of `COc1cc(-c2cc(C(=O)N3CCN(c4ccccn4)CC3)c3ccccc3n2)cc(OC)c1OC`, the z-score is reported as active: -4.2.
`CO/N=C(\Cn1ncc(N2CCCC2)c(Br)c1=O)c1ccc(Cl)cc1` was tested, and the z-score was active: -3.59.
